In PubChem BioAssay AID1240 (Sanford-Burnham Center for Chemical Genomics, 2008):
Screen size: about 50,000 compounds; about 800 (1.6%) showed an effect of 50% or more. This is one part of the list.

These compounds were tested against Bcl-2-like protein 10 (Homo sapiens) (UniProt Q9HD36) (assay: Phenotype converters, Bcl-B/TR3 peptide binding displacement, primary biochemical FP (AID 1240;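 also: 0% = Bcl-B with tracer peptide and DMSO and 100% = tracer peptide lacking Bcl-B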)). Conditions: GST-Bcl-B / FITC-TR3 peptide fluorescence polarization; stronger effect = higher value; compound at 3.75 mg/L.
UniProt Q9HD36, sequence (Q9HD36 whole entry, looked up): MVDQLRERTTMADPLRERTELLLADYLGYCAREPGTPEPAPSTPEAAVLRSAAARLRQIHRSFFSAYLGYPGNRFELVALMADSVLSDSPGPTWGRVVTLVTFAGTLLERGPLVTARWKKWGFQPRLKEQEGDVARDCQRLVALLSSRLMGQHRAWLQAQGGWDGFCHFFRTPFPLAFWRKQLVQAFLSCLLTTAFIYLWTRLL

SMILES | displacement [%]
O=C(NCc1ccccc1)c1cc2nc(-c3ccccc3)cc(C(F)(F)F)n2n1 | -7.4
Cc1ccccc1NC(=O)c1c(-c2cnc3ccccc3c2C(=O)Nc2ccccc2C)cnc2ccccc12 | 1.5
Cc1ccc2c(c1)N(C(=O)c1ccco1)C(C)(C)c1ssc(=S)c1-2 | 23.6
COC(=O)C1=C(C)NC2=C(C(=O)c3ccccc32)C1c1ccc(-c2ccc([N+](=O)[O-])cc2Br)o1 (configuration not stated) | 46.9
C=CCN1C(=O)/C(=C\c2ccc(-c3cc([N+](=O)[O-])ccc3C)o2)C(=O)NC1=S | 31.1
CCOC(=O)c1cc(CC)sc1NC(=O)c1cc(NS(=O)(=O)c2ccc(Cl)cc2)ccc1Br | 5.5
CCC(Oc1ccccc1)C(=O)Nc1nc2ccc(S(C)(=O)=O)cc2s1 (configuration not stated) | 1.3
COc1ccc(-c2nc3sc4c(c3c(=O)[nH]2)CCCC4)cc1C | -19.4
N#C/C(=C/c1ccc(Sc2ccccc2)o1)C(=O)NCc1ccccc1 | 0.5
COc1ccc(N2C(=O)c3ccc(C(=O)Nc4cc(Cl)ccc4C(=O)O)cc3C2=O)cc1 | 8.7
CCOc1ccc(/C=N/Nc2nc(N3CCCCC3)nc(N3CCCCC3)n2)cc1OC | 2.7
CC1=CC(C)(C)Nc2ccc(OC(=O)NC3CCCCC3)cc21 | -3.6
Cc1cc(C(=O)Nc2ccccc2C(N)=O)ccc1[N+](=O)[O-] | 3.3
CCOc1ccc(-c2cc(C(=O)NC(C)C)c3ccccc3n2)cc1 | -5.3
O=C1NC(=O)N(c2ccc(Br)cc2)C(=O)/C1=C\C=C\c1ccco1 | 14
CC(NC(=O)C(O)CN1CCOCC1)C1COc2ccccc2O1 (configuration not stated) | 4.2
COC(C)(C)C(=O)C(C(=O)c1ccccc1)/C(=C/C(=O)c1ccccc1)C(C)(C)OC (configuration not stated) | 23.7
O=C(NCCN1CCOCC1)c1ccccc1Br | -3.4
COc1ccc(OC)c(N(CC(=O)Nc2ccccc2Br)S(C)(=O)=O)c1 | 9.9
O=C1c2ccc3c4c(ccc(c24)C(=O)N1Cc1ccco1)CC3 | 9.5
O=C1c2ccccc2NC(c2ccc(O)cc2)N1c1ccccc1 (configuration not stated) | 12.7
CCOC(=O)C(=O)N1c2ccccc2C(Nc2ccccc2)CC1C (configuration not stated) | -2.2

SMILES | displacement [%]
Cc1ccc(C2CC(C(F)(F)F)n3nc(C(=O)N4CCN(C)CC4)c(Cl)c3N2)cc1 (configuration not stated) | 0.6
CCc1c(C)sc(NC(=O)c2c(-c3ccccc3Cl)noc2C)c1C(N)=O | -11.8
O=C(Nc1ccc(-c2nc3ccccc3o2)c(O)c1)c1ccc(-c2cccc([N+](=O)[O-])c2)o1 | 1.9
O=C(Nc1ccc(/C=C/C(=O)c2cccs2)cc1)c1ccc(Br)cc1 | 13.1
CN1C(=O)CS/C1=N/S(=O)(=O)c1ccc([N+](=O)[O-])cc1 | -3.6
O=C(Nc1ccc2c(c1)OCO2)c1ccc(C#Cc2ccccc2)cc1 | -2.8
Cn1c(=O)c([N+](=O)[O-])c(NCCCO)c2ccccc21 | -4.7
O=S(=O)(c1ccc2ccccc2c1)N1CCN(c2ccccc2)CC1 | 0.6
NC(=O)c1ccccc1NC(=O)c1ccc(I)cc1 | 7.7
O=C(N/N=C/c1cccc2ccccc12)c1cc(-c2cccc3ccccc23)n[nH]1 | -21.5
CCCCOc1ccc(/C=N/N2CCN(C)CC2)cc1 | -4
CC(C)CC(/C(O)=C(\C#N)c1nc2ccccc2[nH]1)N1C(=O)c2ccccc2C1=O (configuration not stated) | 6.4
CCOC(=O)c1ccc(-n2c(C)cc(C=O)c2C)cc1 | 3
CC1(C)CC(NC(=O)c2cccc([N+](=O)[O-])c2)CC(C)(C)N1 | -7.3
O=C(NC(=S)Nc1ccc(Cl)c(Cl)c1)c1ccc(Cl)cc1 | -5.3
O=C(NC(=S)Nc1ccccc1C(F)(F)F)c1ccco1 | 1.8
O=S(=O)(Nc1ccccc1)c1cc(S(=O)(=O)Nc2ccccc2)c2cc(O)ccc2c1 | -10.9
CN1C2C=C(N(CCc3c[nH]c4ccccc34)C(=O)c3ccc(F)cc3)CC1CC2 (configuration not stated) | -5.3
CCOC(=O)/C=C/C(=O)Nc1nc(-c2ccc3ccccc3c2)cs1 | -8.3
CC(C)CCOc1ccc(CN=C(N)N=C(N)N)cc1Cl | -3.3
O=C1c2ccc(Oc3ccc([N+](=O)[O-])cc3)cc2C(=O)N1CCO | 4.9
CCOc1cc(/C=C2/C(=O)NC(=O)N(C)C2=O)cc(Br)c1O | -1.5

SMILES | displacement [%]
O=[N+]([O-])c1cccc(C2=Nn3c(Cc4ccccc4)nnc3SC2)c1 | 7.8
CC(C)CNC(=O)C1CC(=O)N(c2ccc(Cl)cc2)C1 (configuration not stated) | -0.2
CN(C)/C=C1\N=C(c2ccccc2)OC1=O | 9.3
COCC(C)NCc1ccc(OC)cc1 (configuration not stated) | 6.6
COc1ccc(NC(=O)COc2cccc3ccccc23)c([N+](=O)[O-])c1 | 0.4
Cc1cc(C)c2nc3s/c(=C/c4cccn4-c4ccc([N+](=O)[O-])cc4)c(=O)n3c2c1 | 1.7
O=C(N/C(=C/c1ccccc1)C(=O)N1CCCCC1)c1ccco1 | 1.4
CCOC(=O)c1c(N)n(-c2ccccc2O)c2nc3ccccc3nc12 | 19.7
CCOC(=O)C1=NNC2C(=O)N(Cc3ccccc3)C(=O)C12 (configuration not stated) | 3.9
CCc1c(C)c(C#N)c2nc3ccccc3n2c1N1CCN(C2=NCC(C)(C)S2)CC1 | -5.3
CCOc1cc(C=C2C(=O)NC(=O)NC2=O)ccc1OCc1c(C)no[n+]1[O-] | 108
CCN(CC)c1ccc(/C=C(\NC(=O)c2ccccc2)C(=O)NN)cc1 | -10.2
Cc1cccc(Nc2nc(-c3c(C)nc4ccccn34)cs2)c1 | 8
COc1ccc(CN2CC=C(Cc3ccccc3)CC2)cc1 | -11
O=C(c1cccc(Br)c1)N1N=C(c2ccccc2)CC1(O)C(F)(F)F (configuration not stated) | -4.5
COc1ccc(C(=O)N2CCN(c3ccccc3OC)CC2)cc1 | -6.7
COc1ccc(N(CC(O)Cn2c3ccccc3c3ccccc32)S(C)(=O)=O)cc1 (configuration not stated) | 10.6
Cc1cccc(Cc2cnc(N)s2)c1 | 10.5
O=C(O)CCC(=O)NCc1ccc(Cl)cc1 | -11.3
CCN1C(=O)/C(=C2\SC(=S)N(C3CCS(=O)(=O)C3)C2=O)c2ccccc21 (configuration not stated) | 3.9
C=CCn1c(SCC(=O)O)nnc1-c1ccncc1 | -5.8
O=C(Nc1ccc(Cl)cn1)c1cccc2c(Br)cccc12 | 6.2

SMILES | displacement [%]
N#Cc1c(NC(=O)C2CC2)sc2c1CCCCC2 | 7.3
C(=C\c1ccccc1)/CSc1nnc(-c2cccs2)n1-c1ccccc1 | 3
CC1CCc2c(sc(NC(=O)C3CC=CCC3C(=O)O)c2C(N)=O)C1 (configuration not stated) | -4.2
CCOC(=O)c1c(NC(=S)NC(=O)c2ccc(OC)cc2)sc(C)c1C | 5.2
CCOC(=O)Oc1ccc2c(=O)c(Oc3ccc(OC)cc3)c(C(F)(F)F)oc2c1 | -7.3
CCOc1ccc(N(CC(=O)NCC(C)c2ccccc2)S(=O)(=O)c2ccccc2)cc1 (configuration not stated) | -6.5
O=C(Nc1ccc(Cl)cc1C(O)c1ccccc1)c1cnn2c1NC(c1ccccc1)CC2C(F)(F)F (configuration not stated) | -0.6
O=C(Nc1cccc(-c2nc3ccccc3s2)c1)c1ccc(F)c(F)c1 | -5.4
O=C(COC(=O)c1ccc(C#CC2(O)CCCCC2)cc1)c1ccc(Br)cc1 | 2.4
CCOC(=O)C(C(=O)OCC)c1cc(Nc2cccc(C)c2)c2c3c(onc13)-c1ccccc1C2=O | 11.8
NS(=O)(=O)c1ccc(CCNC2CC(=O)N(c3ccc(I)cc3)C2=O)cc1 (configuration not stated) | -19.5
CN1CCC(=NNC(=O)C(=O)NCC2CCCO2)CC1 (configuration not stated) | -16.4
CCCc1ccccc1OCCNc1nc2c(c(=O)n(C)c(=O)n2C)n1C | -8.9
CC(C)=CC1C(C(=O)Nc2ccc(Cl)cn2)C1(C)C (configuration not stated) | -9.1
Cc1ccccc1OCCCNCC1CCCO1 (configuration not stated) | 11.6
CCN(CC)c1ccc(N2C(=O)/C(=C/c3ccc(Cl)cc3)SC2=S)cc1 | 12.8
CCOc1ccc(-n2c(CN3C(=O)c4ccccc4C3=O)nc3ccccc3c2=O)cc1 | 8.3
CCOC(=O)c1ccc(NC(=O)CN(c2cccc([N+](=O)[O-])c2)S(=O)(=O)c2ccccc2)cc1 | 8.5
COc1cccc(/C=N/NC(=O)c2cnccn2)c1O | -22.1
O=C(CNC(=O)c1ccc(Br)cc1)c1ccc(Cl)cc1 | -4.3
O=C(N/N=C/C=C/c1ccccc1)c1cc(C2CC2)[nH]n1 | -4
Cc1ccc(OCC(=O)Nc2ccccc2[N+](=O)[O-])c(C)c1 | 9.6

SMILES | displacement [%]
Cc1cc(=O)oc2cc(OC/C(=N\O)c3ccc(Cl)cc3)c(Cl)cc12 | -4.6
O=C(/C=C/c1ccc(Br)cc1)NC(=S)N1CCOCC1 | 8.5
CC1=C(C(=O)Nc2ccccc2C)C(c2ccc(Cl)cc2)C2=C(CCCC2=O)N1 (configuration not stated) | 3.6
COc1cc(Br)cc(C=Nc2ccc(C)cn2)c1O | 21.6
Cc1c(C(=O)OC(C)C)sc(NC(=O)c2cccc(Cl)c2)c1C#N | 4.4
CCCOC(=O)C(C(=O)OCCC)=C(N)C(Cl)(Cl)Cl | -7.8
COc1cc(Br)cc(C=Nc2ccccc2C(=O)O)c1O | 0.8
CCOc1cccc(C2C(C(=O)Nc3ccccc3C)=C(C)NC3=C2C(=O)CCC3)c1 (configuration not stated) | 5.9
CCOC(=O)c1c(NC(=O)c2ccc(OC)c(OC)c2)sc2c1CCC(CC)C2 (configuration not stated) | -6.5
CCCc1nc2ccccc2n1C(=O)c1ccccc1C(=O)O | -9.2
O=C(/C=C/c1ccccc1)NC(=S)Nc1ccc2ccccc2c1 | -0.8
CC(=O)Nc1ccc(NC(=O)CN2CCCCC2)cc1 | -1
Cc1ccc(-c2nnc3s/c(=C\c4ccccc4Cl)c(=O)n23)cc1 | 30.3
COc1cccc(OCC(=O)NCc2ccncc2)c1 | 14.1
COc1cc(Br)c(/C=C2\C(=O)N(c3cccc(C(=O)O)c3)N=C2C)cc1OC | 0.5
Cn1c(=O)c([N+](=O)[O-])c(-n2ccnc2)c2ccccc21 | -4.2
COC(=O)c1cccc(N2CCCC2=O)c1 | -8.6
Cc1n(CCCCS(=O)(=O)[O-])c2cc(Cl)c(Cl)cc2[n+]1C | 19.4
Cc1ccc(C)c(OCCCCCCn2ccnc2)c1 | 7.9
